# Test results taken from the supplement of paper PMC8728848.
# Some of the results follow.
# B1: CFEM-PPm (Pichia pastoris), F2QPV1 (protein)
# chain: AVATPPACLLACAAEVVKESSDCDALNNIQCICENEGSAIHACLESTCPDGLSSTALQSFEDVCE
# How the values were obtained:
# Experiment in all cases: glycan array binding signal (z-score within array); higher = stronger binding
# Settings in all cases: glycan notation: IUPAC condensed, linker removed
# Fuc(a1-2)Gal = target: Fuc(a1-2)Gal
# Procedure, shortened: (§1)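 Glycan array data were curated from 3228 arrays in the Consortium for Functional Glycomics database and kept only where the protein sequence was available. Glycan names were converted to IUPAC-condensed notation, and columns mapping to the same glycan were averaged. The binding signal is a within-array Z-score, averaged across arrays of the same protein sequence at different concentrations or buffers and across linkers. Negative Z-scores can be read as non-binding.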
# Fuc(a1-2)Gal(b1-3)GalNAc = target: Fuc(a1-2)Gal(b1-3)GalNAc
# Procedure, shortened: as §1
# [1] = target: Fuc(a1-2)Gal(b1-3)GalNAc(a1-3)[Fuc(a1-2)]Gal(b1-4)Glc
# Procedure, shortened: as §1
# [2] = target: Fuc(a1-2)Gal(b1-3)GalNAc(a1-3)[Fuc(a1-2)]Gal(b1-4)GlcNAc
# Procedure, shortened: as §1
# [3] = target: Fuc(a1-2)Gal(b1-3)GalNAc(b1-3)Gal
# Procedure, shortened: as §1
# [4] = target: Fuc(a1-2)Gal(b1-3)GalNAc(b1-3)Gal(a1-4)Gal(b1-4)Glc
# Procedure, shortened: as §1
# [5] = target: Fuc(a1-2)Gal(b1-3)GalNAc(b1-4)[Neu5Ac(a2-3)]Gal(b1-4)Glc
# Procedure, shortened: as §1
# Fuc(a1-2)Gal(b1-3)GlcNAc = target: Fuc(a1-2)Gal(b1-3)GlcNAc
# Procedure, shortened: as §1
# [6] = target: Fuc(a1-2)Gal(b1-3)GlcNAc(b1-2)Man(a1-3)[Fuc(a1-2)Gal(b1-3)GlcNAc(b1-2)Man(a1-6)]Man(b1-4)GlcNAc(b1-4)GlcNAc
# Procedure, shortened: as §1
# [7] = target: Fuc(a1-2)Gal(b1-3)GlcNAc(b1-2)Man(a1-3)[Fuc(a1-2)Gal(b1-3)GlcNAc(b1-2)Man(a1-6)]Man(b1-4)GlcNAc(b1-4)[Fuc(a1-6)]GlcNAc
# Procedure, shortened: as §1
# [8] = target: Fuc(a1-2)Gal(b1-3)GlcNAc(b1-3)Gal(b1-4)Glc
# Procedure, shortened: as §1
# [9] = target: Fuc(a1-2)Gal(b1-3)GlcNAc(b1-3)GalNAc
# Procedure, shortened: as §1
# [10] = target: Fuc(a1-2)Gal(b1-3)GlcNAc(b1-3)[Fuc(a1-2)Gal(b1-3)GlcNAc(b1-6)]GalNAc
# Procedure, shortened: as §1
# [11] = target: Fuc(a1-2)Gal(b1-3)GlcNAc(b1-3)[Gal(b1-4)GlcNAc(b1-6)]Gal(b1-4)Glc
# Procedure, shortened: as §1
# [12] = target: Fuc(a1-2)Gal(b1-3)GlcNAc(b1-3)[Neu5Ac(a2-6)Gal(b1-4)GlcNAc(b1-6)]Gal(b1-4)Glc
# Procedure, shortened: as §1
# [13] = target: Fuc(a1-2)Gal(b1-3)GlcNAc6S
# Procedure, shortened: as §1
# [14] = target: Fuc(a1-2)Gal(b1-3)[Fuc(a1-4)]GlcNAc
# Procedure, shortened: as §1
# [15] = target: Fuc(a1-2)Gal(b1-3)[Fuc(a1-4)]GlcNAc(b1-2)Man(a1-3)[Fuc(a1-2)Gal(b1-3)[Fuc(a1-4)]GlcNAc(b1-2)Man(a1-3)]Man(b1-4)GlcNAc(b1-4)GlcNAc
# Procedure, shortened: as §1
# [16] = target: Fuc(a1-2)Gal(b1-3)[Fuc(a1-4)]GlcNAc(b1-2)Man(a1-3)[Fuc(a1-2)Gal(b1-3)[Fuc(a1-4)]GlcNAc(b1-2)Man(a1-6)]Man(b1-4)GlcNAc(b1-4)[Fuc(a1-6)]GlcNAc(b1-4)[Fuc(a1-6)]GlcNAc
# Procedure, shortened: as §1
# [17] = target: Fuc(a1-2)Gal(b1-3)[Fuc(a1-4)]GlcNAc(b1-3)[Fuc(a1-3)[Gal(b1-4)]GlcNAc(b1-6)]Gal(b1-4)Glc
# Procedure, shortened: as §1
# [18] = target: Fuc(a1-2)Gal(b1-3)[Fuc(a1-4)]GlcNAc(b1-3)[Gal(b1-4)GlcNAc(b1-6)]Gal(b1-4)Glc
# Procedure, shortened: as §1
# [19] = target: Fuc(a1-2)Gal(b1-4)Fuc(a1-3)]GlcNAc(b1-2)Man(a1-3)[Fuc(a1-2)Gal(b1-4)[Fuc(a1-3)]GlcNAc(b1-2)Man(a1-6)]Man(b1-4)GlcNAc(b1-4)GlcNAc
# Procedure, shortened: as §1
# Fuc(a1-2)Gal(b1-4)Glc = target: Fuc(a1-2)Gal(b1-4)Glc
# Procedure, shortened: as §1
# Fuc(a1-2)Gal(b1-4)Glc6S = target: Fuc(a1-2)Gal(b1-4)Glc6S
# Procedure, shortened: as §1
# Fuc(a1-2)Gal(b1-4)GlcNAc = target: Fuc(a1-2)Gal(b1-4)GlcNAc
# Procedure, shortened: as §1
# [20] = target: Fuc(a1-2)Gal(b1-4)GlcNAc(b1-2)Man
# Procedure, shortened: as §1
# [21] = target: Fuc(a1-2)Gal(b1-4)GlcNAc(b1-2)Man(a1-3)[Fuc(a1-2)Gal(b1-4)GlcNAc(b1-2)Man(a1-6)]Man(b1-4)GlcNAc(b1-4)GlcNAc
# Procedure, shortened: as §1
# [22] = target: Fuc(a1-2)Gal(b1-4)GlcNAc(b1-2)Man(a1-3)[Fuc(a1-2)Gal(b1-4)GlcNAc(b1-2)Man(a1-6)]Man(b1-4)GlcNAc(b1-4)[Fuc(a1-6)]GlcNAc
# Procedure, shortened: as §1
# [23] = target: Fuc(a1-2)Gal(b1-4)GlcNAc(b1-2)[Fuc(a1-2)Gal(b1-4)GlcNAc(b1-4)]Man(a1-3)[Fuc(a1-2)Gal(b1-4)GlcNAc(b1-2)Man(a1-6)]Man(b1-4)GlcNAc(b1-4)GlcNAc
# Procedure, shortened: as §1
# [24] = target: Fuc(a1-2)Gal(b1-4)GlcNAc(b1-3)Gal(b1-4)GlcNAc
# Procedure, shortened: as §1
binder,measurement,setting,value
B1,glycan array binding signal (z-score),Fuc(a1-2)Gal,-0.282
same,glycan array binding signal (z-score),Fuc(a1-2)Gal(b1-3)GalNAc,-0.128
same,glycan array binding signal (z-score),[1],-0.33
same,glycan array binding signal (z-score),[2],-0.477
same,glycan array binding signal (z-score),[3],0.693
same,glycan array binding signal (z-score),[4],-0.397
same,glycan array binding signal (z-score),[5],0.176
same,glycan array binding signal (z-score),Fuc(a1-2)Gal(b1-3)GlcNAc,-0.176
same,glycan array binding signal (z-score),[6],-0.289
same,glycan array binding signal (z-score),[7],-0.221
same,glycan array binding signal (z-score),[8],-0.269
same,glycan array binding signal (z-score),[9],0.84
same,glycan array binding signal (z-score),[10],-0.111
same,glycan array binding signal (z-score),[11],-0.32
same,glycan array binding signal (z-score),[12],-0.215
same,glycan array binding signal (z-score),[13],-0.038
same,glycan array binding signal (z-score),[14],0.026
same,glycan array binding signal (z-score),[15],0.346
same,glycan array binding signal (z-score),[16],0.007
same,glycan array binding signal (z-score),[17],-0.342
same,glycan array binding signal (z-score),[18],-0.1
same,glycan array binding signal (z-score),[19],0.209
same,glycan array binding signal (z-score),Fuc(a1-2)Gal(b1-4)Glc,-0.194
same,glycan array binding signal (z-score),Fuc(a1-2)Gal(b1-4)Glc6S,-0.286
same,glycan array binding signal (z-score),Fuc(a1-2)Gal(b1-4)GlcNAc,-0.341
same,glycan array binding signal (z-score),[20],-0.119
same,glycan array binding signal (z-score),[21],-0.405
same,glycan array binding signal (z-score),[22],-0.412
same,glycan array binding signal (z-score),[23],-0.188
same,glycan array binding signal (z-score),[24],-0.192
